# Assay results as given in PubChem BioAssay AID445 (National Center for Advancing Translational Sciences (NCATS), 2006).
# Among all 110,000 compounds or so, about 40 (0.04%) were called active. The inconclusive results got no clear call from the source; some entries with a clear call stand among them for comparison. The call rests on the fitted dose curve; in most records, active means well fitted curve in the direction sought with a large enough effect in the signal ratio (not every such curve was filed as active); inconclusive means small, poorly fitted or top-dose-only effect, or a change in a side signal; inactive means flat fitted curve, though single readings scatter; the % refers to the signal ratio. Potencies beside an inconclusive call are fits to weak or partial responses and may not hold up.
# Experiment: IkB Signaling;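 on IkBa stabilization activation: 0% = basal untreated cells and 100% = reference inhibitor full response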
# Details: ABC-DLBCL IkBa-CBG/CBR dual luciferase ratio (green luciferase fused to IkBa over red control in OCI-Ly3 lymphoma cells), 4 h; IkBa stabilization activation: at 57.1 µM (top of the series), scaled: untreated 0%, proteasome inhibitor 100% unless noted
# Method in brief: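 Curves were fitted separately to fusion (green), unfused (red) and ratio luminescence, then classed by r2, magnitude and activity. Cells: OCI-Ly3, 4 h compound plus doxycycline at 37C; 10 uM MG-132 defined full response.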
# Potency means the concentration at half of the fitted maximal effect.
Structure (SMILES),IkBa stabilization activation,Potency
Cc1ccc(CNC(=O)c2sc3nc(-c4ccccc4)cn3c2C)cc1,inactive,–
COc1ccccc1N1CCN(c2ccc(-c3ccccc3)nn2)CC1,–,active: 3.98 µM
O=C(Nc1ccc2c(c1)nc1n2CCN(C2CCCCC2)C1)c1ccco1,inactive,–
O=C(Nc1nc2ccccc2s1)c1ccc(S(=O)(=O)N2CCCC2)cc1,inconclusive: 2.08% [signal inhibitor],–
CC(O)CN1C(=O)C(CC(=O)Nc2ccc(Cl)cc2)SC1=Nc1ccccc1 (centres undefined),inconclusive: 6.28% [signal inhibitor],–
CC(CNC(=O)c1ccc(CSc2nc3ccncc3n2Cc2ccccc2)cc1)c1ccccc1 (centres undefined),inconclusive: 0.872% [signal inhibitor],–
COc1cc(Cl)c(NS(=O)(=O)c2ccc(-c3cnc(C4CC4)o3)cc2)c(OC)c1,inactive,–
O=C(CN1c2cccc3cccc(c23)S1(=O)=O)NCc1ccc2c(c1)OCO2,inconclusive: 0.919% [signal inhibitor],–
CC(C)CCNC(=O)C(c1ccco1)N(Cc1cccs1)C(=O)Cn1nnc2ccccc21 (centres undefined),inconclusive: 0.974% [signal inhibitor],–
CCCc1ccc(-c2ccc(C(=O)Oc3ccc(OCC)cc3)cc2)nc1,–,"inconclusive: 7.94 µM [signal inhibitor, partial curve]"
Cc1ccccc1C(=N)c1ccccc1Cc1cccc2ccccc12,"inactive: 1.42% [at 11.4 µM, scaled: untreated 0%, proteasome inhibitor 100%]",–
Cc1ccc(CCNC(=O)CS(=O)Cc2nc(-c3ccccc3C)oc2C)cc1 (centres undefined),inconclusive: 3.42% [signal inhibitor],–
CCN(Cc1ccccc1)C(=O)Cn1c(=O)n(-c2ccc(Cl)cc2)c(=O)c2c(C)c(C(=O)N(C)C)sc21,inactive,–
CCOC(=O)C(C)Sc1nnc(-c2ccccc2O)n1-c1ccc(C)cc1 (centres undefined),inactive,–
CCc1ccc(OCc2nc(-c3ccc(OC)cc3)no2)c(Br)c1,inconclusive: -3.89% [signal inhibitor],–
C[C@H](N)C1CCC(C(=O)Nc2ccncc2)CC1 (some centres undefined),inactive,–
Cc1nn(-c2ccc(N3CCCC3)nn2)c(C)c1CCC(=O)Nc1ccc(F)cc1F,inconclusive: -0.084% [signal inhibitor],–
C=CCn1c(SCc2c(C)noc2C)nc2cc(C(=O)O)ccc2c1=O,inactive,–
O=C(NCc1ccc(F)cc1)c1ccc(Nc2nc3ccccc3n3nnnc23)cc1,–,"inconclusive: 3.98 µM [signal inhibitor, full curve]"
CCCC12CN3CC(CCC)(CN(C1)C3c1ccccc1)C2=O (centres undefined),inconclusive: 0.972% [signal inhibitor],–
CCOC(=O)c1ccc(NC(=O)NCCOCCn2c(=O)oc3ccccc32)cc1,inconclusive: -0.88% [signal inhibitor],–
O=c1cnc2cnc(Nc3ccccc3)nc2n1CCc1ccccc1,"inactive: -2.87% [at 11.4 µM, scaled: untreated 0%, proteasome inhibitor 100%]",–
CC/C(=C(\c1ccccc1)c1ccc(OCCN(C)C)cc1)c1ccc(O)cc1,inconclusive: -7.6% [signal inhibitor],–

Structure (SMILES),IkBa stabilization activation,Potency
CCS(=O)(=O)c1nc(S(=O)(=O)c2ccc(C)cc2)c(NCCCOC)s1,inconclusive: 0.249% [signal inhibitor],–
Cn1nnc(NC(=O)COc2ccc(C3CCCCC3)cc2)n1,inconclusive: -0.405% [signal inhibitor],–
O=C(Nc1ccccc1Br)C(Cc1ccccc1)NS(=O)(=O)c1cccc2nsnc12 (centres undefined),inconclusive: 1.66% [signal inhibitor],–
COc1ccccc1NC(=O)C1CCN(C(=O)c2sc3nc[nH]c(=O)c3c2C)CC1,inactive,–
CC(=O)c1ccc(NC(=O)c2ccc(-c3ccc(Cl)cc3)o2)cc1,inactive,–
COc1cccc(CSc2nc3n(n2)C(CC(C)C)C(C(=O)Nc2ccccc2OC)=C(C)N3)c1 (centres undefined),inconclusive: 0.104% [signal inhibitor],–
CCOc1ccc(S(=O)(=O)N(CC(=O)NCc2ccccc2OC)c2ccccc2)cc1,–,inconclusive: 31.6 µM [signal inhibitor]
CC(OC(=O)c1cc(=O)[nH]c2ccccc12)c1ccccc1 (centres undefined),inconclusive: 5.63% [signal inhibitor],–
O=C(O)c1cccc(NC(=O)c2ccccc2)c1,–,"inconclusive: 20 µM [signal inhibitor, partial curve]"
COc1ccc(C(=O)N2CCC(C(=O)Nc3ccc(Cl)cc3)CC2)cc1,inconclusive: 2.4% [signal inhibitor],–
CCSc1oc(-c2ccco2)nc1S(=O)(=O)c1ccccc1,inactive,–
CCOC(=O)C1CCN(C(=O)COc2cc(C)c(Br)cc2C)CC1,–,"inconclusive: 7.94 µM [signal inhibitor, partial curve]"
CC(C(=O)NCC1CCCO1)N(C(=O)c1snc(C(N)=O)c1N)c1ccccc1 (centres undefined),inconclusive: -2.46% [signal activator],–
Cc1ccccc1Nc1c(-c2ccc(Br)o2)nc2ccc(Cl)cn12,–,"inconclusive: 15.8 µM [signal inhibitor, partial curve]"
O=C(CC(SCCO)c1ccc(F)cc1)c1ccco1 (centres undefined),–,"inconclusive: 31.6 µM [rising, single point]"
CN(C)c1ncc2nc(-c3ccccc3)c(=O)n(-c3ccccc3)c2n1,"inactive: -4.05% [at 11.4 µM, scaled: untreated 0%, proteasome inhibitor 100%]",–
COc1ccc(N(CC(=O)Nc2cc(C)on2)S(=O)(=O)c2cc(C)ccc2C)cc1,inactive,–
CCN(Cc1nc(-c2ccc(OC)cc2)oc1C)S(=O)(=O)c1ccc(C)cc1,inconclusive: 3.51% [signal inhibitor],–
Cc1ccc(NC(=O)CN2CCSc3ccc(S(=O)(=O)N4CCCC4)cc32)cc1,inconclusive: 1.16% [signal inhibitor],–
CCc1ccc(Oc2c(C(F)(F)F)oc3c(CN4CCC(C)CC4)c(O)ccc3c2=O)cc1,inconclusive: 0.272% [signal inhibitor],–
COc1cc(-c2cc(OC)c3c(C)oc(C)c3c(=O)c2)ccc1O,inactive,–
COc1ccccc1N1C(=O)N(C(C)=O)C2C1Nc1ccccc1N2C (centres undefined),inactive,–
O=C(NC1CC1)c1cc2c(s1)-c1ccccc1OC2,inconclusive: 12.5% [signal inhibitor],–

Structure (SMILES),IkBa stabilization activation,Potency
O=C(Nc1ccc2nc(SCC(=O)N3CCCC3)sc2c1)c1cccc(Br)c1,inconclusive: 0.719% [signal inhibitor],–
CSc1nc2ccccc2n1C(=O)Oc1ccccc1,inactive,–
Cc1cc(C)cc(N2C(=O)CSC23C(=O)N(CC(=O)Nc2ccc(F)cc2F)c2ccccc23)c1 (centres undefined),inconclusive: 15.8% [signal inhibitor],–
COc1cc(NC(=O)COc2ccc(F)cc2)nc(OC)n1,inactive,–
CCOCCCN1C(=O)c2[nH]nc(-c3ccccc3O)c2C1c1ccc(CC)cc1 (centres undefined),inconclusive: -2.99% [signal inhibitor],–
Cc1cc(C)c(C#N)c(SC2CCCCC2=O)n1 (centres undefined),inconclusive: 11.3% [signal inhibitor],–
CCc1cccc(NC(=O)Cn2c(=O)n(CC(=O)NCCc3ccccc3)c(=O)c3ccccc32)c1,inconclusive: -1.12% [signal inhibitor],–
CC(C)CCn1c(=O)c2sccc2n2c(CCCC(=O)NCCc3ccccc3)nnc12,inconclusive: 0.696% [signal inhibitor],–
COc1cccc(-c2cc(C(=O)Nc3cccc(O)c3)no2)c1,–,"inconclusive: 3.16 µM [signal inhibitor, full curve]"
COc1cccc(-c2cn3nc(C)c(C)nc3n2)c1,inconclusive: 14.7% [signal inhibitor],–
COc1ccccc1C(=O)N1CCC(c2noc(-c3ccc(S(=O)(=O)N4CCCC4)cc3)n2)CC1,inconclusive: 0.496% [signal inhibitor],–
O=C(NCCc1ccc(Cl)cc1)c1ccc(CS(=O)Cc2ccccc2Cl)o1 (centres undefined),inconclusive: -2.76% [signal inhibitor],–
Cn1ccnc1SCC(=O)c1ccc(Br)cc1,inactive,–
COc1cc2c(cc1OC)C(C)N(C(=O)C1COc3ccccc3O1)CC2 (centres undefined),inconclusive: 0.926% [signal inhibitor],–
c1ccc(-c2csc3nnc(SCc4ccc5c(c4)OCO5)n23)cc1,inconclusive: -5.53% [signal inhibitor],–
COc1ccc(C(=O)Nc2ccc(-c3ccc(C)o3)cc2)cc1S(=O)(=O)N1CCOCC1,–,"inconclusive: 39.8 µM [rising, single point]"
Cn1c(=O)n(C)c2cc(NS(=O)(=O)c3ccc(F)cc3)ccc21,–,"inconclusive: 20 µM [rising, partial curve]"
COc1cccc(C(=O)Nc2ccc3nc(SCC(=O)N4CCOCC4)sc3c2)c1,inconclusive: 1.35% [signal inhibitor],–
COc1ccccc1CCn1c(=O)c(-c2ccccc2)nc2cncnc21,"inactive: 2.12% [at 11.4 µM, scaled: untreated 0%, proteasome inhibitor 100%]",–
COc1cc2nc(NCCC(C)C)n3nc(-c4ccccc4)nc3c2cc1OC,inconclusive: 3.16% [signal inhibitor],–
CCCCS(=O)(=O)c1oc(-c2cccs2)nc1S(=O)(=O)c1ccccc1,inconclusive: -1.96% [signal inhibitor],–
Cc1nn(-c2ccccc2)c(N2CCCC2)c1/C=N/n1cnc2scc(-c3ccccc3)c2c1=O,inconclusive: 1.83% [signal inhibitor],–
Cc1cc(C)n2c(Nc3ccc(Cl)cc3)c(-c3ccsc3)nc2n1,inconclusive: 0.83% [signal inhibitor],–
